The other results are listed elsewhere or left out. At the low end of the ranking, values are background and their order means little.
Each sequence was assayed against T1, GST-Rok-C97-191 (UniProt O34857) (assay: protein binding microarray). Details: Rok is a gene silencer of Bacillus subtilis; high values mean tight binding; most listed sequences are background and not binding sites; double strand, one strand shown.
T1 sequence: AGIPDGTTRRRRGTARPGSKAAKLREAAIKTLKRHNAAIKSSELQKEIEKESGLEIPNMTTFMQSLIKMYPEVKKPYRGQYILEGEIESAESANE
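Also: rank score from −0.5 (least bound) to 0.5 (best bound).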

Row | Sequence | binding signal
1 | ATCGCTAC | -0.00148 E-score
2 | CCTTTAAA | -0.182 E-score
3 | AAATATCC | 0.083 E-score
4 | ACACCAGG | -0.136 E-score
5 | CGCGAACC | -0.18 E-score
6 | GCGATTGA | -0.1 E-score
7 | CCTGATTA | -0.0482 E-score
8 | CCCCCCAA | -0.226 E-score
9 | ACCAGTGA | 0.024 E-score
10 | AGTTGATG | -0.0235 E-score
11 | CCGTGATA | 0.0818 E-score
12 | GAGCGACA | -0.112 E-score
13 | CTAAATTA | 0.141 E-score
14 | ACGCCTGC | -0.115 E-score
15 | AGAGGCCG | -0.0778 E-score
16 | GTCACCAC | -0.205 E-score
17 | AATGTTAA | 0.19 E-score
18 | ACCAAGTA | 0.0883 E-score
19 | AGGTTACG | -0.0378 E-score
20 | ATGAAAGA | 0.0937 E-score
21 | CTCGGCTA | -0.00784 E-score
22 | AGAGAACC | 0.11 E-score
23 | CCATCAGC | -0.198 E-score
24 | CTCGTTAC | -0.0868 E-score
25 | ACCGTACA | 0.122 E-score

Row | Sequence | binding signal
26 | TTCCGCAA | 0.117 E-score
27 | GGTTTAAA | -0.0216 E-score
28 | AACGGAGA | -0.0715 E-score
29 | CAGGTCTA | -0.0399 E-score
30 | CACCTAAA | 0.0109 E-score
31 | CCGTTCCG | -0.28 E-score
32 | AGAAGAGG | -0.182 E-score
33 | AGGGATCG | -0.222 E-score
34 | CCTGGGAG | -0.0953 E-score
35 | GGCATTTA | 0.141 E-score
36 | CACCATAA | 0.0533 E-score
37 | TAGAGAAA | 0.262 E-score
38 | AGTGCGTA | 0.115 E-score
39 | AGCCGTCC | -0.224 E-score
40 | CAAAGAGA | -0.141 E-score
41 | CTAGCATA | 0.128 E-score
42 | AGTTTAGG | 0.0458 E-score
43 | CACACGAA | -0.0776 E-score
44 | CTTATACC | 0.256 E-score
45 | GGCAATAA | 0.138 E-score
46 | CGACAAGA | -0.175 E-score
47 | GTCCCCGA | -0.327 E-score
48 | ACCGTCGA | -0.104 E-score
49 | GCAATAGA | 0.278 E-score
50 | AACTCCGA | 0.0806 E-score

Row | Sequence | binding signal
51 | TTCTCCAA | 0.146 E-score
52 | CCCCCCGC | -0.368 E-score
53 | ACAGCACG | -0.0506 E-score
54 | ACCCGCCC | -0.0655 E-score
55 | GAGTGTAA | 0.0764 E-score
56 | CAATGGAA | 0.00895 E-score
57 | GCCTCTAC | -0.106 E-score
58 | TAAATCGA | 0.0722 E-score
59 | ACCTTCCA | 0.0348 E-score
60 | CATCCGGA | -0.0512 E-score
61 | ACAATGCA | -0.0616 E-score
62 | CCTTGTGC | -0.0616 E-score
63 | AAGAGGCC | -0.0911 E-score
64 | CCGGAATC | -0.0013 E-score
65 | AATTTCTC | 0.198 E-score
66 | CTAAGTCC | -0.132 E-score
67 | CACCTTTA | 0.0225 E-score
68 | AATACCCC | -0.107 E-score
69 | GATCCAGC | -0.0574 E-score
70 | CCTGTCTA | 0.00702 E-score
71 | CCCGGGCC | -0.484 E-score
72 | AATCGGTA | 0.124 E-score
73 | GGGCCAAC | -0.235 E-score
74 | CAGACCTG | -0.165 E-score
75 | GGAACCCA | -0.203 E-score

Row | Sequence | binding signal
76 | AATCGACG | -0.0952 E-score
77 | CGTAAATC | 0.0528 E-score
78 | ACCGAGTA | 0.0422 E-score
79 | TCCATAGA | -0.00397 E-score
80 | AGCCTTGG | -0.19 E-score
81 | GTAGCAGA | -0.0149 E-score
82 | AAGCTTCT | 0.141 E-score
83 | TACTGCAA | 0.0621 E-score
84 | CCTCAACC | -0.0922 E-score
85 | CGGGGTCA | -0.336 E-score
86 | CAGGGCAA | -0.148 E-score
87 | CACACAGA | -0.114 E-score
88 | GATTCAAC | -0.071 E-score
89 | ACGGTGAA | -0.0293 E-score
90 | GCCAGAAA | -0.14 E-score
91 | ACTCTCTC | 0.00147 E-score
92 | AAGCAACG | -0.101 E-score
93 | ATTGATCG | 0.15 E-score
94 | CGTATCGC | 0.12 E-score
95 | AATCGGCA | -0.17 E-score
96 | CGCCACGC | -0.345 E-score
97 | CACACAAA | 0.0652 E-score
98 | CGTTATTA | 0.215 E-score
99 | AACAACGG | -0.235 E-score
100 | TCGTTCAA | -0.16 E-score

Row | Sequence | binding signal
101 | AGCTAATA | 0.366 E-score
102 | AAACCACC | -0.1 E-score
103 | ACGACTCT | -0.158 E-score
104 | GTCACGAA | -0.1 E-score
105 | GCAATCGA | 0.072 E-score
106 | AGGTTAGA | 0.0796 E-score
107 | CCAGTGCA | -0.277 E-score
108 | ACATAGAA | 0.157 E-score
109 | CGATAGAA | 0.359 E-score
110 | AACCAATT | 0.204 E-score
111 | CTTTGTAC | 0.249 E-score
112 | AATTTGAA | -0.0188 E-score
113 | GCTCCATA | -0.0452 E-score
114 | ATTTCTCA | 0.126 E-score
115 | CTATGACA | 0.0447 E-score
116 | GGAGATAA | 0.122 E-score
117 | AAGTGATA | 0.288 E-score
118 | ATCTGTAG | 0.37 E-score
119 | AGTACAGC | 0.174 E-score
120 | CACGACAA | -0.0945 E-score
121 | ACGGGGTC | -0.275 E-score
122 | GAAATGTA | 0.329 E-score
123 | CCTGCAGC | -0.284 E-score
124 | CTGGAGTC | -0.117 E-score
125 | CTTGCACC | -0.00963 E-score

Row | Sequence | binding signal
126 | ACTATAAT | 0.299 E-score
127 | AGTGACCA | -0.184 E-score
128 | AAAGAACT | 0.233 E-score
129 | CCTGTTCC | -0.204 E-score
130 | CCTACACC | -0.215 E-score
131 | GCAGGCGC | -0.217 E-score
132 | ATACTCCA | 0.112 E-score
133 | GGCATATA | 0.0304 E-score
134 | CAATCTGA | -0.127 E-score
135 | AGTTATTA | 0.23 E-score
136 | CTCATGAC | -0.0988 E-score
137 | CATTATTC | 0.188 E-score
138 | AAGTTGCA | 0.0502 E-score
139 | GCGTTACC | -0.112 E-score
140 | ACAGGGAG | -0.159 E-score
141 | CGTAATTA | 0.318 E-score
142 | TGCTTGAA | -0.109 E-score
143 | CTCCTGCA | -0.221 E-score
144 | CAGTTGCG | -0.153 E-score
145 | AGAGGACA | -0.102 E-score
146 | ACGAAAAG | -0.151 E-score
147 | CACATGAC | -0.0896 E-score
148 | CCGTTAAG | -0.0449 E-score
149 | TAACGGTA | 0.278 E-score
150 | AAGGGTCG | -0.229 E-score

Row | Sequence | binding signal
151 | CGCTGAGA | -0.311 E-score
152 | ATTCCAAC | 0.0309 E-score
153 | AGATTAGG | 0.167 E-score
154 | CCGGGTCA | -0.247 E-score
155 | TTACTGAA | 0.144 E-score
156 | ACCTGCAG | 0.0473 E-score
157 | CATCTTAA | 0.184 E-score
158 | ATAGTGTA | 0.346 E-score
159 | CATTTGGC | -0.0432 E-score
160 | TGCTCTAA | -0.0813 E-score
161 | GTCTACGA | -0.0769 E-score
162 | CTCTGTCC | -0.234 E-score
163 | CTAGTCCC | -0.195 E-score
164 | TCTTAAAA | -0.0115 E-score
165 | AGCTATAG | 0.233 E-score
166 | CTAACCTC | -0.0994 E-score
167 | CCCGCTTC | -0.0653 E-score
168 | ATCGCGAG | -0.0109 E-score
169 | AGCGTTAC | 0.0931 E-score
170 | TACATAAA | 0.301 E-score
171 | AATGGTAA | 0.238 E-score
172 | AGCGTCCC | -0.251 E-score

— article PMC6212790
